“And” between values parts separate entries of the source, which are not always exact repeats. Equal values may be shown once. Among all 420,000 compounds or so, about 50,000 (12%) were called active. Inconclusive means that the source gave no clear call. Such entries were picked first, then a sample of the others. Calls come from the whole dose curve; as a rule, active = well fitted inhibition curve with a large enough effect; inconclusive = small, poorly fitted or top-dose-only effect; inactive = flat fitted curve, though single readings scatter. Potencies of inconclusive entries are left out as doubtful fits. Where a structure was tested more than once in an assay, its records may differ in their call.
test: qHTS for Inhibitors of human tyrosyl-DNA phosphodiesterase 1 (TDP1): qHTS in cells in presence of CPT; conditions: chicken DT40 Tdp1-/-;hTDP1 cells + 20 nM CPT, ATP luminescence, 48 h; series mostly up to 46.2 µM; note: nearly all actives have a fitted effect of over 55% in size
Outline: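 Chicken DT40 Tdp1-/- cells stably complemented with human TDP1 were seeded at 400 cells/well in medium containing 20 nM camptothecin, exposed to pin-transferred compounds, and grown at 37 °C for at least 48 hr. Viability was read as ATP luminescence.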
Potency is the fitted concentration of half-maximal effect; tags give direction and shape of the fitted curve.

Row | SMILES | Potency
1 | CCCCN1C(=N)N([C@@H](C)CN2CCC[C@H]2CN2C(N)=NC[C@@H]2Cc2ccccc2)C[C@H]1Cc1ccccc1 | inconclusive [inhibitor, single point]
2 | CCOc1ccc(-c2nnc(SCC(=O)Oc3ccccc3)o2)cc1 | inconclusive [inhibitor, single point]
3 | O=C(Nc1ccc(F)cc1)C(c1ccncc1)N1CCN(C(=O)c2ccco2)CC1 (stereo not drawn) | inactive
4 | CC(C)c1ccc(-c2nc3c([nH]2)c(=O)n(C)c(=O)n3C)cc1 | inactive
5 | CCn1c(=O)cc(SCC(=O)Nc2cc(Cl)ccc2OC)c2ccccc21 | inconclusive [inhibitor, single point]
6 | O=C(Nc1cnn(Cc2ccc(Cl)cc2)c1)c1cccs1 | active: 11.6 µM
7 | O=c1c2c3c(sc2nnn1Cc1ccc(F)cc1)CCCC3 | inconclusive [inhibitor, single point]
8 | O=C(NCC(O)c1nc2ccccc2[nH]1)c1cc([N+](=O)[O-])ccc1F (stereo not drawn) | inconclusive [inhibitor, single point]
9 | CCCCNC(=O)c1cc2c(=O)n(CC)c3ccccc3c2s1 | inconclusive [inhibitor, single point]
10 | CCNC(=S)NNC(=O)c1csc2ccccc12 | inactive
11 | Cc1cc(C)c2c(N)c(C(=O)NN3CC(=O)N(c4cccc(Cl)c4)CC3=O)sc2n1 | inactive
12 | Cc1scc(C(=O)NNC(=S)NCC2CCCO2)c1-c1ccccc1 (stereo not drawn) | inactive
13 | CC(=O)Nc1sc2c(c1C(c1cccc(Cl)c1)N1CCN(CCO)CC1)CCCC2 (stereo not drawn) | active: 16.4 µM
14 | O=C(/C=C/[C@H]1O[C@@H](n2cnc3c(NC(=O)c4ccccc4)ncnc32)[C@H](O)[C@@H]1O)NCC1CCCO1 (stereo partly drawn) | inactive
15 | CCOc1cccc(C(=O)Nc2ccc(-c3nc4cc(C)cc(C)c4o3)cc2)c1 | inactive
16 | CC(=O)c1sc(=S)n(-c2ccccc2)c1C | inactive
17 | NS(=O)(=O)c1ccc(CCNc2nc3c(-c4cccc(F)c4)nnn3c3ccccc23)cc1 | inconclusive [inhibitor, partial curve, poor fit]
18 | CC(=O)NC1=NC(=O)/C(=C/c2cn(C(C)=O)nc2-c2ccccc2)S1 | inconclusive [inhibitor, single point]
19 | COc1ccc(N(C(C)=O)C2SC(=O)N(c3ccccc3)C2=O)cc1 (stereo not drawn) | inconclusive [inhibitor, single point]
20 | CC(=O)c1ccc(N2CCN(S(=O)(=O)c3c(C(=O)N4CCCCC4)c(C)n(C)c3C)CC2)cc1 | inactive
21 | Cc1cc([N+](=O)[O-])nn1CC(=O)NCCCn1ccnc1 | inactive
22 | Cc1ccccc1Cn1c(=O)n(CCC(=O)NCc2ccc3c(c2)OCO3)c(=O)c2ccccc21 | inconclusive [inhibitor, single point]
23 | CCOC(=O)c1ccccc1NC(=O)c1nn(-c2ccc(C)cc2)c(=O)n(C)c1=O | inconclusive [inhibitor, partial curve]

Row | SMILES | Potency
24 | CC(C)c1ccccc1NC(=S)N(C)C | inactive
25 | CCCCOc1ccc(C(=O)N=c2sccn2C)cc1OC | inconclusive [inhibitor, single point]
26 | CCCCN(Cc1ccco1)C(=O)c1cc2c(s1)-c1c(C)cccc1OC2 | inconclusive [inhibitor, single point]
27 | Cc1[nH]nc2nc(SCC(=O)NC3CCCCC3)n(-c3ccc(Br)cc3)c(=N)c12 | active: 8.2 µM
28 | CCOC(=O)CC(C)(C)/C(C)=N/Nc1ccc([N+](=O)[O-])cc1[N+](=O)[O-] | inconclusive [inhibitor, single point]
29 | COC(=O)/C=c1/s/c(=C(\C#N)C(=O)NCc2ccco2)n(-c2ccccc2)c1=O | inconclusive [inhibitor, partial curve]
30 | Cc1ccc(NC(=O)Cn2c(=O)cnc3ccccc32)cc1S(=O)(=O)N1CCCCC1 | inconclusive [inhibitor, single point]
31 | Cc1ccc2oc(=O)n(Cc3ccc(OC(C)C)cc3)c2c1 | inconclusive [inhibitor, single point]
32 | Cc1cccc(NC(=O)c2oc3ccc(S(=O)(=O)N(C)C4CCCCC4)cc3c2C)c1C | active: 10.3 µM
33 | CSc1ccc(C(O)c2ncc(-c3ccccc3Cl)[nH]2)cc1 (stereo not drawn) | inconclusive [inhibitor, single point]
34 | CC1(C)CC(=O)C2=C(C1)c1c(ccc3ccccc13)NC2c1cc([N+](=O)[O-])cc([N+](=O)[O-])c1O (stereo not drawn) | inconclusive [inhibitor, single point]
35 | CCOCCCNC(=O)Cn1cc2c(n1)-c1c(oc(C(=O)N3CCCC3)c1C)CC2 | inconclusive [inhibitor, single point]
36 | COc1c(Cl)cc(Cl)cc1/C=C(\C#N)c1nc(-c2ccc(Cl)cc2)cs1 | inactive
37 | O=S(=O)(c1ccccc1)N1CCN=C1SCc1ccc(Cl)c(Cl)c1 | active: 13 µM
38 | COc1ccc(-n2ncc(C(=O)NCCCN3CCCCC3)c2C2CCN(C(=O)OC(C)(C)C)CC2)cc1 | active: 18.4 µM
39 | Cc1c(NC(=O)C(F)(F)F)ccc2nc3c(=O)n(C)c(=O)n(C)c3nc12 | inconclusive [inhibitor, single point]
40 | CC[C@H](C)/C=C/C1=CC2=C(Cl)C(=O)[C@@]3(C)OC(=O)C(C(=O)[C@H](C)[C@@H](C)O)=C3C2=CO1 | inconclusive [inhibitor, single point]
41 | Cc1sc(NC(=O)c2sc3nc4c(C)cccc4cc3c2N)c(C#N)c1C | inconclusive [inhibitor, single point]
42 | COc1cccc(COc2cc3ccccc3nc2C)c1 | active: 10.3 µM
43 | CC(C)CCNC1c2ccccc2C(=O)N1Cc1ccccc1 (stereo not drawn) | inactive
44 | CCCCOC(=O)c1ccc(NC(=O)c2c(N)n(C)c(=O)[nH]c2=O)cc1 | inconclusive [inhibitor, partial curve, poor fit]
45 | CC(C(=O)OCC(=O)c1ccc([N+](=O)[O-])cc1)N1C(=O)C2C3C=CC(C3)C2C1=O (stereo not drawn) | active: 16.4 µM
46 | Cc1ccc(C(C)C)c(OCCCn2c(=O)oc3ccc(C)cc32)c1 | inconclusive [inhibitor, single point]

Row | SMILES | Potency
47 | O=S(=O)(Cc1cc(Sc2ccc(Cl)cc2)nc(-c2ccccc2)n1)c1ccccc1 | inconclusive [inhibitor, single point]
48 | C[C@@H](C(=O)NCc1ccccc1)[C@@H]1C[C@@]1(C)[C@@H](NC(=O)OCc1ccccc1)c1ccccc1 | active: 16.4 µM
49 | CCCCC(=O)N(c1ccc(C(=O)O)cc1)c1nc(-c2ccc(Cl)cc2)c(CC)s1 | inconclusive [inhibitor, partial curve]
50 | COC(=O)Cn1ccc2cc(S(=O)(=O)N3CCCCC3)ccc21 | inactive and active: 20.6 µM
51 | CCCC(C)c1nc(C(N)=O)c2[nH]c(=O)n(-c3ccc(OC)cc3OC)c2n1 (stereo not drawn) | inconclusive [inhibitor, single point]
52 | CCc1nc(N2CCN(C(C)=O)CC2)c2c3c(sc2n1)CCCC3 | inactive
53 | CCOC(=O)C1CCCN(CC(=O)NC2=Nc3ccccc3N=C(C)C2c2ccccc2)C1 (stereo not drawn) | inconclusive [inhibitor, single point]
54 | COc1ccc(OC)c(Nc2nc(-c3ccncc3)nc3ccccc23)c1 | active: 18.4 µM
55 | Cc1cc(C)c(S(=O)(=O)N2CCC(N3CCN(Cc4ccc(F)cc4)C(=O)C3=O)CC2)c(C)c1 | inconclusive [inhibitor, partial curve]
56 | CC(C)c1ccc(NC(=O)c2cnn3c(C(F)F)cc(-c4ccccc4)nc23)cc1 | inconclusive [inhibitor, single point]
57 | Cc1ccc(S(=O)(=O)n2ccc3c(OCCOCCSCC(NC(=O)OC(C)(C)C)C(=O)O)cccc32)cc1 (stereo not drawn) | inactive
58 | CCOC(=O)C(=O)Nc1ccc(Oc2ccccc2)cc1 | inactive
59 | COC(=O)c1nn(-c2ccc(OC)cc2)c(=O)c2c(N)sc(C)c12 | active: 23.1 µM
60 | CCOC(=O)c1c(C)c(C)n(Cc2ccc(OC)c(OC)c2)c1C | active: 20.6 µM
61 | O=C(O)COc1ccccc1C1Nc2ccccc2-c2nnc(SCc3ccc(Cl)cc3)nc2O1 (stereo not drawn) | inconclusive [inhibitor, single point]
62 | Cc1ccc2nsnc2c1NC(=O)c1ccc([N+](=O)[O-])cc1 | inactive
63 | COC(=O)[C@@]1(Cc2ccc(OC)cc2)[C@H]2c3cc(C(=O)N4CCCC4)n(CCSCCO)c3C[C@H]2CN1C(=O)c1ccccc1 | inconclusive [inhibitor, partial curve]
64 | Cc1cc(C(=O)COC(=O)Cc2ccc(Cl)cc2)c(C)n1C | inactive
65 | COc1cccc(CNC(=O)CCC(=O)N2CCSc3ccccc32)c1OC | inconclusive [inhibitor, single point]
66 | Clc1cccc(Cl)c1-c1nnc2ccc(N3CCOCC3)nn12 | inconclusive [inhibitor, single point]
67 | COc1cc(CN2CCOc3ccc(CN4CCC(Oc5cccnc5)CC4)cc3C2)ccc1F | inconclusive [inhibitor, single point]
68 | C/C=C/C(=O)Nc1nnc(C2CCCCC2)s1 | inconclusive [inhibitor, single point]
